Measured values reported in PubChem BioAssay AID651820 (National Center for Advancing Translational Sciences (NCATS), 2012).
Out of some 340,000 compounds screened, about 12,000 (3.5%) were called active. This list was built around the results that the source calls inconclusive (neither active nor inactive); the mix of calls is not that of the screen. The call rests on the fitted dose curve; in most records, active means well fitted inhibition curve with a large enough effect; inconclusive means small, poorly fitted or top-dose-only effect, or another doubt; inactive means no such curve, though single readings can be large or run the other way. No potency is given beside an inconclusive call; the fits are too rough.

assay: qHTS Assay for Inhibitors of Hepatitis C Virus (HCV); details: Huh7.5.1 HCVcc-Cre (HCVcc is cell-culture hepatitis C virus) infection, luciferase reporter, 44 h; activity change, negative = inhibition: at 41.8 µM (top of the series) unless noted
Outline: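 Compounds are dispensed onto cells plated 4 h earlier at 1,000 per well, with HCVcc-Cre virus (about 0.5 moi) added next. Following 44 h of culture, luminescent signal is measured for 15 sec after 15 min with substrate at room temperature.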
On the % scale 0 is the no-effect control and ±100 the full control effect; potency means the concentration at half of the fitted maximal effect; tags describe the fitted curve by direction and shape.

SMILES | Potency | activity change, negative = inhibition
COc1cc(/C(C)=N/NC(=O)CN2CCN(S(=O)(=O)c3ccc(C)cc3)CC2)ccc1O | inactive | 
O=C(NC1CCCCC1)c1ccccc1NC(=S)NC(=O)C1CC1 | inactive | 
COc1ccc(Cl)cc1NC(=O)c1cnc2n(c1=O)CCS2 | inactive | 
O=S1(=O)CCN(Cc2cccc(C(F)(F)F)c2)CC1 | inconclusive [inhibitor, single point] | 
O=C(c1ccc2c(c1)OCCO2)N1CCCC(CNS(=O)(=O)c2cccs2)C1 (stereo unspecified) | inactive | 
CCOc1ccc(S(=O)(=O)N2CCCCC2)cc1NC(=O)CN1C(=O)NC(C)(c2ccccc2)C1=O (stereo unspecified) | inconclusive [inhibitor, partial curve, poor fit] | 
O=C(CCN1C(=O)/C(=C\c2ccccc2)SC1=S)NCCCN1CCOCC1 | inconclusive [inhibitor, single point] | 
COc1cnc(-c2ccccn2)nc1Sc1ccc(Cl)cc1 | inconclusive [inhibitor, partial curve] | 
Nc1nc2c(nc(Br)n2[C@@H]2O[C@@H]3COP(=O)(O)O[C@H]3[C@H]2O)c(=O)[nH]1 | inactive | 
CCc1ccc(Nc2nc(N)nc(CSc3nnnn3-c3ccccc3)n2)cc1 | inconclusive [inhibitor, single point] | 
Cc1cccc(NC(=O)c2cc(S(=O)(=O)c3ccccc3)ccc2Cl)c1 | active: 7.94 µM | 
CC(=O)Nc1c(Cl)cc2c(c1Cl)Cc1cc(C#N)ccc1-2 | inconclusive [inhibitor, partial curve] | 
COc1ccc(Nc2cc(Sc3ccc(OC)cc3)ncn2)cc1 | inconclusive [inhibitor, partial curve, poor fit] | 
CC(=O)CSc1ncnc2sc3c(c12)CCCC3 | active: 10 µM | 
CCCCN1C(=O)C(=O)N(CC(=O)Nc2sc(CC)cc2C(=O)OCC)C1=O | inconclusive [inhibitor, full curve] | 
CCOC(=O)C1=C(C)NC(=O)NC1c1ccc(N(CC)CC)cc1 (stereo unspecified) | inconclusive [inhibitor, single point] | 
O=C(NNC(=O)C1CC(c2cccnc2)=NO1)Nc1ccccc1F (stereo unspecified) | inactive | 
CC1CC1C(=O)OCC(=O)Nc1ncc(Cl)cc1Cl (stereo unspecified) | inactive | 
CC1CC(C)CN(c2nc(NCc3ccco3)nc(N)c2[N+](=O)[O-])C1 (stereo unspecified) | inconclusive [inhibitor, single point] | 
CCCCN1CNC(=S)N(Cc2ccccc2)C1 | inactive | 
Cc1cc(C(=O)NC2CCCc3c2cnn3-c2cccc(C)c2C)no1 (stereo unspecified) | active: 11.2 µM | 
Cc1[nH]c2ccccc2c1/C=C/c1cc[n+](C)cc1 | inconclusive [inhibitor, full curve, poor fit] | 
O=c1c2ccccc2nnn1CSc1nnc(-c2cccs2)n1Cc1ccccc1 | inconclusive [inhibitor, partial curve] | 

SMILES | Potency | activity change, negative = inhibition
Cn1cc(CN2CCN(c3ccc(Cl)cn3)CC2)c(-c2ccccc2F)n1 | inconclusive [inhibitor, single point] | 
COc1ccc2ccccc2c1/C=N/NC(=O)c1ccc([N+](=O)[O-])cc1 | inactive | 
COCc1cc(=O)n2[nH]c(N)nc2n1 | inactive | 
COCCCNCCCOc1ccc(Cl)cc1Br | active: 12.6 µM | 
Cc1cc(C)n(C(=O)CNC(=O)c2ccc(C(C)(C)C)cc2)n1 | inconclusive [inhibitor, single point] | 
Nc1ccc(N=Nc2ccccc2)cc1[N+](=O)[O-] | inconclusive [inhibitor, single point] | 
CCN1C(=O)[C@@H]2[C@@H](c3ccc(SC4CCCCC4)c(OC)c3)N3CCC[C@@]3(C(=O)OC)[C@@H]2C1=O | inactive | 
Clc1ccc(Cn2ncc3c(N4CCOCC4)ncnc32)cc1 | inconclusive [inhibitor, single point] | 
CCc1cc(N2CCOCC2)cc2c1[nH]c1ccccc12 | active: 7.08 µM | 
Cc1ccc2c(c1)-c1c(ssc1=S)C(C)(C)N2C(=O)CSc1nncn1C | active: 10 µM | 
CN(CCOc1ccccc1)C(=O)c1ccc(OC2CCN(C(=O)C3CC3)CC2)cc1 | inconclusive [inhibitor, single point] | 
CCn1c(=O)n(CC)c2cc(N3CCCC3)c(NC(=O)c3cc(Br)ccc3OC)cc21 | inconclusive [inhibitor, partial curve] | 
Cc1csc(NC(=O)CSc2nc3[nH]c(=O)cc(O)c3s2)n1 | active: 10 µM | 
Cc1ccc(C)c(C(=O)CCC(=O)Nc2ccc(N3CCN(C)CC3)cc2C)c1 | inconclusive [inhibitor, partial curve] | 
CCCOc1ccc(C(=O)N/N=C/c2c[nH]c3ccc(Br)cc23)cc1 | active: 12.6 µM | 
COc1cccc(C2=NN(C(=O)c3ccco3)C(c3ccco3)C2)c1 (stereo unspecified) | inconclusive [inhibitor, partial curve] | 
O=C(NCCN1CCOCC1)c1cc(Sc2ccccc2Cl)nc2ccccc12 | inconclusive [inhibitor, single point] | 
COc1cc(C(=O)NCC(C)(C)CNC(=O)c2cc(OC)c(OC)c(OC)c2)cc(OC)c1OC | inconclusive [inhibitor, partial curve, poor fit] | 
COc1cc(OC)cc(C(=O)NC(C(=O)NNC(=O)c2cc(Cl)ccc2OC)C(C)C)c1 (stereo unspecified) | inconclusive [inhibitor, partial curve, poor fit] | 
CC1=C(c2ccccc2)C(O)(c2ccccc2)C(C)C1=O (stereo unspecified) |  | inconclusive: -60.8% [inhibitor]
Cc1ccc(C(=O)NS(=O)(=O)c2ccccc2)cc1 | active: 3.16 µM | 
COc1ccc(C(=O)N(C)Cc2ccc(OC)c(OC)c2OC)cc1S(=O)(=O)N1CCOCC1 | inactive | 
C[C@@]12C(=O)N(c3cccc(F)c3)C(=O)N1[C@H](c1ccc(Cl)cc1)[C@@H]1C(=O)N(C3CCCCC3)C(=O)[C@@H]12 | inconclusive [inhibitor, single point] | 
